The campaign covered roughly 310,000 compounds. About 18,000 (5.8%) were called active. The inconclusive results got no clear call from the source; some entries with a clear call stand among them for comparison. Calls follow the shape of the dose curve; as a rule, active = well fitted inhibition curve with a large enough effect; inconclusive = small, poorly fitted or top-dose-only effect, or another doubt; inactive = no such curve, though single readings can be large or run the other way. Potencies of inconclusive entries are left out as doubtful fits.
Test: Primary qHTS for delayed death inhibitors of the malarial parasite plastid, 48 hour incubation
Conditions: P. falciparum luciferase growth in erythrocytes; series mostly up to 28.7 µM
Outline: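 Compounds are pin-transferred into medium, infected erythrocytes (2% hematocrit, 0.1% parasitemia final) are added, and plates sit one parasite generation at 37 C in 5% CO2. Detection reagent is then added and luminescence measured.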
% is scaled to controls: 0 for no effect and ±100 for the full control effect; potency is read from the fitted curve at half-maximal effect; tags tell the direction and shape of the fitted curve.

| SMILES | Potency | activity change, negative = inhibition |
| --- | --- | --- |
| CC(=O)c1c(NCCc2ccccc2)cc(C)oc1=O | inconclusive [inhibitor, single point] | – |
| C[C@H]1CN=C(Nc2ccccc2)N1CCC1CCCCC1 | inconclusive [inhibitor, single point] | – |
| COC(=O)c1ccc(CSc2nnc(-c3ccc4c(c3)OCO4)n2-c2ccccc2)o1 | inconclusive [inhibitor, single point] | – |
| CS(=O)(=O)N(CC(=O)NCC1CCCO1)c1cccc(Cl)c1 (configuration not stated) | inconclusive [inhibitor, single point] | – |
| O=C(COc1ccc(S(=O)(=O)N2CCOCC2)cc1)Nc1ccc(Cl)c(C(F)(F)F)c1 | active: 9.28 µM | – |
| Cc1cccc(-n2c(SCC(=O)N3CCCC3)nc3n[nH]c(C)c3c2=N)c1 | inconclusive [inhibitor, partial curve, poor fit] | – |
| O=C(CCn1c(=O)[nH]c2ccsc2c1=O)N1CCN(c2ccc([N+](=O)[O-])cc2)CC1 | inconclusive [inhibitor, single point] | – |
| O=C(CCc1nc2ccccc2c(=O)[nH]1)OCC(=O)N1CCN(S(=O)(=O)c2ccccc2)CC1 | inactive | – |
| CCOC(=O)CCc1c(C)nc2c(c(C)nn2-c2ccccc2)c1C | – | inactive: -8.54% [at 0.00184 µM] |
| CC1(C)CC2CC(C)(CN2C(=O)c2cc(-c3ccc(O)cc3)on2)C1 (configuration not stated) | inactive | – |
| CC(C(=O)NCCCc1ccccc1)c1ccc([N+](=O)[O-])cc1 (configuration not stated) | inconclusive [inhibitor, single point] | – |
| O=C(c1cccs1)N1CCCC(N2CCN(c3cccc(C(F)(F)F)c3)CC2)C1 (configuration not stated) | inconclusive [inhibitor, partial curve, poor fit] | – |
| Cc1nc2ccc(C(=O)Nc3cccc([N+](=O)[O-])c3)cc2s1 | inconclusive [inhibitor, single point] | – |
| CNc1oc(-c2ccc(Cl)cc2)nc1P(=O)(c1ccccc1)c1ccccc1 | inconclusive [inhibitor, single point] | – |
| CN(C)S(=O)(=O)c1ccc(C(=O)NCC(c2cccs2)N2CCOCC2)cc1 (configuration not stated) | inconclusive [inhibitor, single point] | – |
| CC(NC(=O)c1ccc([N+](=O)[O-])o1)C12CC3CC(CC(C3)C1)C2 (configuration not stated) | active: 6.57 µM | – |
| O=C(c1ccc(F)cc1)N1CCN(c2cc(N3CCCCC3)c(F)cc2[N+](=O)[O-])CC1 | inconclusive [inhibitor, single point] | – |
| CN1CCN(C(=O)c2ccc(Cl)c(S(=O)(=O)N3CCCCC3)c2)CC1 | inconclusive [inhibitor, single point] | – |
| O=C(CN(Cc1ccco1)C(=O)c1ccccc1)Nc1ccc(Cl)c(Cl)c1 | inactive | – |
| COc1ccc(C(=O)N2CCc3ccc(NC(=O)c4ccccn4)cc3C2)cc1F | inconclusive [inhibitor, partial curve, poor fit] | – |
| O=c1ccn(CCCBr)c(=O)[nH]1 | inactive | – |

| SMILES | Potency | activity change, negative = inhibition |
| --- | --- | --- |
| CC1(c2ccc(C#N)cc2)NC(=O)N(CC(=O)Nc2cc(S(=O)(=O)N3CCOCC3)ccc2Cl)C1=O (configuration not stated) | inconclusive [inhibitor, partial curve] | – |
| CC1(C)Cc2cccc(OCC(=O)N3CCN(S(=O)(=O)c4ccc(F)cc4)CC3)c2O1 | inconclusive [inhibitor, partial curve] | – |
| O=C(Nc1ccc2c(c1)OCO2)C1CCN(Cc2cc3c(cc2O)OCO3)CC1 | inconclusive [inhibitor, single point] | – |
| O=C(/C=C/c1ccc(-c2ccccc2[N+](=O)[O-])o1)c1ccc(Br)cc1 | inactive | – |
| COc1ccc(-n2c(C)cc(C(=O)Cn3nnc4ccccc4c3=O)c2C)cc1 | inconclusive [inhibitor, single point] | – |
| Cc1ccc(N(C(=O)Cc2cccs2)C2C=CS(=O)(=O)C2)cc1Cl (configuration not stated) | inconclusive [inhibitor, partial curve, poor fit] | – |
| CC(=O)OC/C=C(\C)CCC=C(C)C | inconclusive [inhibitor, single point] | – |
| COc1ccc(S(=O)(=O)n2ccnc2)c2cccnc12 | inconclusive [inhibitor, partial curve] | – |
| CC(CNC(=O)CN1C(=O)COc2ccc(S(=O)(=O)N3CCCCC3)cc21)c1ccccc1 (configuration not stated) | inactive | – |
| Cc1ccc(C)c(NC(=S)N(Cc2ccco2)C(C)c2cccs2)c1 (configuration not stated) | inconclusive [inhibitor, partial curve] | – |
| COc1ccc(N2CCN(c3nc4c(c(=O)[nH]c(=O)n4C)n3Cc3cccc(C)c3)CC2)cc1 | active: 10.4 µM | – |
| Cc1ccc(N=Nc2c(N)[nH]n3c(=O)c4c(nc23)CCCC4)cc1 | inconclusive [inhibitor, full curve, poor fit] | – |
| CCOC(=O)c1cc(-c2ccc(Cl)cc2)nc2c1c(C)nn2CCC#N | inconclusive [inhibitor, partial curve, poor fit] | – |
| CCOc1ccc(C(C)=O)cc1Cn1nc(C(=O)O)c2ccccc2c1=O | inactive | – |
| COc1ccc(C=C(C#N)C#N)c(CSc2ccccn2)c1 | inactive | – |
| C#CCOCCOCCOCCNc1nc(N2CCOCC2)nc(N2CCN(C(=O)[C@H](Cc3cc4ccccc4[nH]3)n3cc([C@@H](N)CC(C)C)nn3)CC2)n1 | active: 2.33 µM | – |
| CC(=O)c1ccc(NC(=O)CSc2ccc(-c3sc(C)nc3C)nn2)cc1 | inconclusive [inhibitor, single point] | – |
| O=C(Nc1cccc(C(F)(F)F)c1)N(Cc1ccc(Cl)cc1)CC(O)C(F)(F)F (configuration not stated) | inconclusive [inhibitor, partial curve] | – |
| CCCCSc1nc2sc3c(c2c(=O)n1-c1ccccc1)CCN(C)C3 | active: 5.22 µM | – |
| CCOC(=O)c1c(NC(=S)Nc2ccccc2)sc2c1CCN(CCc1ccccc1)C2 | active: 13.1 µM | – |
| Cc1cc2c(cc(C(=O)N3CCC(C(=O)NC4CCCC4)CC3)n2Cc2c(F)cccc2Cl)o1 | inconclusive [inhibitor, full curve] | – |

Reference: PubChem BioAssay AID504832 (National Center for Advancing Translational Sciences (NCATS), 2011)
